# In the supplement of paper PMC8728848:
# The list shows a part of the results.
# B1: BDCA-2 (Homo sapiens), Q8WTT0 (protein)
# chain: MVPEEEPQDREKGLWWFQLKVWSMAVVSILLLSVCFTVSSVVPHNFMYSKTVKRLSKLREYQQYHPSLTCVMEGKDIEDWSCCPTPWTSFQSSCYFISTGMQSWTKSQKNCSVMGADLVVINTREEQDFIIQNLKRNSSYFLGLSDPGGRRHWQWVDQTPYNENVTFWHSGEPNNLDERCAIINFRSSEEWGWNDIHCHVPQKSICKMKKIYI
# Assays:
# Assay in all cases: glycan array binding signal (z-score within array); higher = stronger binding
# Settings in all cases: glycan notation: IUPAC condensed, linker removed
# GalNAc3S(b1-4)GlcNAc3S = molecular target: GalNAc3S(b1-4)GlcNAc3S
# Procedure, shortened: (§1)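 Glycan array data came from 3228 arrays in the Consortium for Functional Glycomics database, and only arrays with an available protein sequence were kept. Glycan names were put into IUPAC-condensed notation, and columns mapping to the same glycan were averaged. The binding signal is a within-array Z-score, averaged across arrays of one protein sequence run at different concentrations or buffers and across linkers. A negative Z-score can be read as non-binding.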
# [1] = molecular target: GalNAc3S(b1-4)[Fuc(a1-3)]GlcNAc
# Procedure, shortened: as §1
# GalNAc4S6S(b1-4)GlcNAc = molecular target: GalNAc4S6S(b1-4)GlcNAc
# Procedure, shortened: as §1
# GalNAc6S(b1-4)GlcNAc = molecular target: GalNAc6S(b1-4)GlcNAc
# Procedure, shortened: as §1
# Glc(a1-4)Glc = molecular target: Glc(a1-4)Glc
# Procedure, shortened: as §1
# [2] = molecular target: Glc(a1-4)Glc(a1-4)Glc(a1-4)Glc
# Procedure, shortened: as §1
# Glc(a1-6)Glc(a1-6)Glc = molecular target: Glc(a1-6)Glc(a1-6)Glc
# Procedure, shortened: as §1
# [3] = molecular target: Glc(a1-6)Glc(a1-6)Glc(a1-6)Glc
# Procedure, shortened: as §1
# Glc(b1-4)Glc = molecular target: Glc(b1-4)Glc
# Procedure, shortened: as §1
# Glc(b1-6)Glc = molecular target: Glc(b1-6)Glc
# Procedure, shortened: as §1
# GlcA(b1-3)Gal = molecular target: GlcA(b1-3)Gal
# Procedure, shortened: as §1
# GlcA(b1-3)GlcNAc = molecular target: GlcA(b1-3)GlcNAc
# Procedure, shortened: as §1
# GlcA(b1-6)Gal = molecular target: GlcA(b1-6)Gal
# Procedure, shortened: as §1
# [4] = molecular target: GlcA3S(b1-3)Gal(b1-4)GlcNAc(b1-2)Man
# Procedure, shortened: as §1
# [5] = molecular target: GlcA3S(b1-3)Gal(b1-4)GlcNAc(b1-3)Gal(b1-4)Glc
# Procedure, shortened: as §1
# [6] = molecular target: GlcNAc(a1-3)Gal(b1-4)GlcNAc
# Procedure, shortened: as §1
# [7] = molecular target: GlcNAc(a1-4)Gal(b1-3)GlcNAc
# Procedure, shortened: as §1
# [8] = molecular target: GlcNAc(a1-4)Gal(b1-4)GalNAc
# Procedure, shortened: as §1
# [9] = molecular target: GlcNAc(a1-4)Gal(b1-4)GlcNAc
# Procedure, shortened: as §1
# [10] = molecular target: GlcNAc(a1-4)Gal(b1-4)GlcNAc(b1-3)Gal(b1-4)Glc
# Procedure, shortened: as §1
# [11] = molecular target: GlcNAc(a1-4)Gal(b1-4)GlcNAc(b1-3)Gal(b1-4)GlcNAc
# Procedure, shortened: as §1
# [12] = molecular target: GlcNAc(a1-4)Gal(b1-4)GlcNAc(b1-3)Gal(b1-4)GlcNAc(b1-3)Gal(b1-4)GlcNAc
# Procedure, shortened: as §1
# [13] = molecular target: GlcNAc(a1-4)Gal(b1-4)GlcNAc(b1-3)Gal(b1-4)[Fuc(a1-3)]GlcNAc(b1-3)Gal(b1-4)[Fuc(a1-3)]GlcNAc
# Procedure, shortened: as §1
# [14] = molecular target: GlcNAc(a1-6)Gal(b1-4)GlcNAc
# Procedure, shortened: as §1
# [15] = molecular target: GlcNAc(b1-2)Gal(b1-3)GalNAc
# Procedure, shortened: as §1
# [16] = molecular target: GlcNAc(b1-2)Man(a1-3)[GlcNAc(b1-2)Man(a1-6)]Man(b1-4)GlcNAc(b1-4)GlcNAc
# Procedure, shortened: as §1
# [17] = molecular target: GlcNAc(b1-2)Man(a1-3)[GlcNAc(b1-2)Man(a1-6)]Man(b1-4)GlcNAc(b1-4)[Fuc(a1-6)]GlcNAc
# Procedure, shortened: as §1
# [18] = molecular target: GlcNAc(b1-2)Man(a1-3)[GlcNAc(b1-4)][GlcNAc(b1-2)Man(a1-6)]Man(b1-4)GlcNAc(b1-4)GlcNAc
# Procedure, shortened: as §1
# [19] = molecular target: GlcNAc(b1-2)Man(a1-3)[GlcNAc(b1-4)][GlcNAc(b1-2)Man(a1-6)]Man(b1-4)GlcNAc(b1-4)[Fuc(a1-6)]GlcNAc
# Procedure, shortened: as §1
# [20] = molecular target: GlcNAc(b1-2)[GlcNAc(b1-4)]Man(a1-3)[GlcNAc(b1-2)Man(a1-6)]Man(b1-4)GlcNAc(b1-4)GlcNAc
# Procedure, shortened: as §1
# [21] = molecular target: GlcNAc(b1-2)[GlcNAc(b1-4)]Man(a1-3)[GlcNAc(b1-4)][GlcNAc(b1-2)Man(a1-6)]Man(b1-4)GlcNAc(b1-4)GlcNAc
# Procedure, shortened: as §1
# [22] = molecular target: GlcNAc(b1-2)[GlcNAc(b1-4)]Man(a1-3)[GlcNAc(b1-4)][GlcNAc(b1-2)[GlcNAc(b1-6)]Man(a1-6)]Man(b1-4)GlcNAc(b1-4)GlcNAc
# Procedure, shortened: as §1
# [23] = molecular target: GlcNAc(b1-2)[GlcNAc(b1-4)]Man(a1-3)[GlcNAc(b1-4)][GlcNAc(b1-2)[GlcNAc(b1-6)]Man(a1-6)]Man(b1-4)GlcNAc(b1-4)[Fuc(a1-6)]GlcNAc
# Procedure, shortened: as §1
# [24] = molecular target: GlcNAc(b1-2)[GlcNAc(b1-6)]Man(a1-6)[GlcNAc(b1-2)Man(a1-3)]Man(b1-4)GlcNAc(b1-4)GlcNAc
# Procedure, shortened: as §1
# [25] = molecular target: GlcNAc(b1-2)[GlcNAc(b1-6)]Man(a1-6)[GlcNAc(b1-2)Man(a1-3)]Man(b1-4)GlcNAc(b1-4)[Fuc(a1-6)]GlcNAc
# Procedure, shortened: as §1
# [26] = molecular target: GlcNAc(b1-2)[GlcNAc(b1-6)]Man(a1-6)[GlcNAc(b1-4)][GlcNAc(b1-2)Man(a1-3)]Man(b1-4)GlcNAc(b1-4)GlcNAc
# Procedure, shortened: as §1
# GlcNAc(b1-3)Fuc = molecular target: GlcNAc(b1-3)Fuc
# Procedure, shortened: as §1
# GlcNAc(b1-3)Gal = molecular target: GlcNAc(b1-3)Gal
# Procedure, shortened: as §1
# [27] = molecular target: GlcNAc(b1-3)Gal(b1-3)GalNAc
# Procedure, shortened: as §1
# GlcNAc(b1-3)Gal(b1-4)Glc = molecular target: GlcNAc(b1-3)Gal(b1-4)Glc
# Procedure, shortened: as §1
# [28] = molecular target: GlcNAc(b1-3)Gal(b1-4)GlcNAc
# Procedure, shortened: as §1
# [29] = molecular target: GlcNAc(b1-3)Gal(b1-4)GlcNAc(b1-2)Man(a1-3)[GlcNAc(b1-3)Gal(b1-4)GlcNAc(b1-2)Man(a1-6)]Man(b1-4)GlcNAc(b1-4)GlcNAc
# Procedure, shortened: as §1
# [30] = molecular target: GlcNAc(b1-3)Gal(b1-4)GlcNAc(b1-2)Man(a1-3)[GlcNAc(b1-3)Gal(b1-4)GlcNAc(b1-2)Man(a1-6)]Man(b1-4)GlcNAc(b1-4)[Fuc(a1-6)]GlcNAc
# Procedure, shortened: as §1
# [31] = molecular target: GlcNAc(b1-3)Gal(b1-4)GlcNAc(b1-2)[GlcNAc(b1-3)Gal(b1-4)GlcNAc(b1-6)]Man(a1-6)[GlcNAc(b1-3)Gal(b1-4)GlcNAc(b1-2)Man(a1-3)]Man(b1-4)GlcNAc(b1-4)GlcNAc
# Procedure, shortened: as §1
# [32] = molecular target: GlcNAc(b1-3)Gal(b1-4)GlcNAc(b1-3)Gal(b1-4)GlcNAc
# Procedure, shortened: as §1
binder,measurement,setting,value
B1,glycan array binding signal (z-score),GalNAc3S(b1-4)GlcNAc3S,-0.175
same,glycan array binding signal (z-score),[1],-0.158
same,glycan array binding signal (z-score),GalNAc4S6S(b1-4)GlcNAc,-0.173
same,glycan array binding signal (z-score),GalNAc6S(b1-4)GlcNAc,-0.174
same,glycan array binding signal (z-score),Glc(a1-4)Glc,-0.134
same,glycan array binding signal (z-score),[2],-0.144
same,glycan array binding signal (z-score),Glc(a1-6)Glc(a1-6)Glc,-0.319
same,glycan array binding signal (z-score),[3],-0.081
same,glycan array binding signal (z-score),Glc(b1-4)Glc,-0.167
same,glycan array binding signal (z-score),Glc(b1-6)Glc,-0.098
same,glycan array binding signal (z-score),GlcA(b1-3)Gal,0.118
same,glycan array binding signal (z-score),GlcA(b1-3)GlcNAc,-0.153
same,glycan array binding signal (z-score),GlcA(b1-6)Gal,-0.122
same,glycan array binding signal (z-score),[4],-0.151
same,glycan array binding signal (z-score),[5],-0.189
same,glycan array binding signal (z-score),[6],-0.091
same,glycan array binding signal (z-score),[7],-0.179
same,glycan array binding signal (z-score),[8],-0.161
same,glycan array binding signal (z-score),[9],-0.186
same,glycan array binding signal (z-score),[10],-0.181
same,glycan array binding signal (z-score),[11],-0.173
same,glycan array binding signal (z-score),[12],-0.176
same,glycan array binding signal (z-score),[13],-0.087
same,glycan array binding signal (z-score),[14],0.006
same,glycan array binding signal (z-score),[15],0.091
same,glycan array binding signal (z-score),[16],0.846
same,glycan array binding signal (z-score),[17],-0.075
same,glycan array binding signal (z-score),[18],-0.129
same,glycan array binding signal (z-score),[19],-0.093
same,glycan array binding signal (z-score),[20],-0.125
same,glycan array binding signal (z-score),[21],-0.172
same,glycan array binding signal (z-score),[22],-0.186
same,glycan array binding signal (z-score),[23],-0.191
same,glycan array binding signal (z-score),[24],0.342
same,glycan array binding signal (z-score),[25],-0.072
same,glycan array binding signal (z-score),[26],-0.167
same,glycan array binding signal (z-score),GlcNAc(b1-3)Fuc,-0.167
same,glycan array binding signal (z-score),GlcNAc(b1-3)Gal,-0.168
same,glycan array binding signal (z-score),[27],-0.224
same,glycan array binding signal (z-score),GlcNAc(b1-3)Gal(b1-4)Glc,0.173
same,glycan array binding signal (z-score),[28],0.016
same,glycan array binding signal (z-score),[29],-0.169
same,glycan array binding signal (z-score),[30],-0.145
same,glycan array binding signal (z-score),[31],-0.191
same,glycan array binding signal (z-score),[32],0.182
